# Measurements: PubChem BioAssay AID1508642 (National Center for Advancing Translational Sciences (NCATS), 2021)
# Hit rate of the full screen: of about 43,000 compounds, about 200 (0.47%) were called active. Another 12% or so got no clear call; they are omitted. Calls follow the shape of the dose curve; as a rule, active = well fitted cell-killing curve with a large enough effect; inconclusive = small, poorly fitted or top-dose-only effect, or effect the other way; inactive = flat fitted curve, though single readings scatter. The list shows a part of the results.
# Assay: Cell viability qHTS assay in S16 Pmp22-F2sN cells; also: nearly all actives have a fitted effect of over 65% in size
# Settings: S16 Pmp22-F2sN Schwann cells viability, CellTiter-Glo, 24 h; series mostly up to 57.5 µM; activity change, negative = cytotoxicity: at the top concentration
# In short: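 S16 Pmp22-F2sN Schwann cells (500-1,000/well) in phenol-red-free DMEM with 10% FBS received 23 nL compound by pin tool for 24 h at 37 °C. Viability was then read as CellTiter-Glo luminescence after 15 min at room temperature.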
# % is scaled to controls: 0 for no effect and ±100 for the full control effect.
row,Structure (SMILES),"activity change, negative = cytotoxicity"
1,Cc1ccc(-c2nnc(Nc3cccc(C(F)(F)F)c3)c3ccccc23)cc1S(=O)(=O)N1CCOCC1,inactive: -21.6%
2,CC(C)(C)c1ccc(-c2noc(CCC(=O)Nc3cccc(Cl)c3)n2)cc1,inactive: 1.59%
3,Cc1ccc(-n2c(SCC(N)=O)nc3c([nH]c4ccccc43)c2=O)cc1,inactive: 13.5%
4,Cc1cncn1CCc1nc2c3ccccc3nc(SCC(=O)Nc3ccccc3F)n2n1,inactive: -8.49%
5,Cc1ccc(Cn2c(C)c(CNC(C)c3ccccc3)c(C(=O)O)c2C)cc1 (configuration not stated),inactive: 10.9%
6,CC1CCN(S(=O)(=O)c2nnc(NC(=O)c3cccc(F)c3)s2)CC1,inactive: -23.7%
7,COC(=O)c1sc2cccc(F)c2c1S(=O)(=O)N1CCN(c2ccc(C)cc2C)CC1,inactive: -5.38%
8,COc1nc(-c2ccc(C)cc2)ccc1-c1noc(-c2ccc(C(C)(C)C)cc2)n1,inactive: -14.4%
9,COc1ccc(OC)c(S(=O)(=O)NCCc2csc3nc(-c4ccccc4)nn23)c1,inactive: 2.82%
10,Cc1cccc(N2CCN(C(=O)c3ccc4c(c3)c(C)c(C)n4C)CC2C)c1 (configuration not stated),inactive: -4.32%
11,Cc1ccc(NC(=O)c2cc(S(=O)(=O)N3CCCC3)c[nH]2)c(C)c1,inactive: -13.7%
12,COc1ccccc1N1CCN(c2cc(C)nc3nc(-c4ccc(Cl)cc4)nn23)CC1,inactive: 0.907%
13,CCc1ccc(-n2nc(C)c3c(C(=O)Nc4cc(C)ccc4C)cc(C)nc32)cc1,inactive: -2.08%
14,CCOc1ccc(N(CC)S(=O)(=O)N2CCCC(C(=O)NCCc3ccccc3OC)C2)cc1 (configuration not stated),inactive: -19%
15,CC1CCCCN1C(=O)CSc1nnc(-c2ccccc2Cl)o1 (configuration not stated),inactive: 0.394%
16,COc1ccccc1CNC(=O)Cn1c(=O)ccc2cc(S(=O)(=O)N3CCCC3)ccc21,inactive: -3.41%
17,Cc1cccc(Oc2coc3cc(OCC(=O)NC4CCCCC4)ccc3c2=O)c1,inactive: -16.1%
18,COc1ccc(-c2cn3nc(N4CCC(C(=O)Nc5ccc(C)cc5)CC4)sc3n2)cc1,inactive: -8.48%
19,COc1ccc(CNC(=O)CN2C(=O)COc3ccc(S(=O)(=O)N4CCOCC4)cc32)cc1,inactive: 7.09%
20,CCOc1ccc(/C=C/c2nc(C#N)c(N3CCN(c4ccccc4)CC3)o2)cc1,inactive: 14.6%
21,CCOCN(C(=O)Cn1cnc2cc(C)c(C)cc21)c1c(C)cccc1CC,inactive: 1.38%
22,COc1ccc(Br)cc1CNC(=O)C1COc2ccccc2C1 (configuration not stated),inactive: 8.28%
23,O=C(Nc1ccc(C(=O)N2CCN(c3ccc(Cl)cc3)CC2)cc1)c1nsc2ccccc12,inactive: -15.3%
24,CC(C)c1ccc(NC(=O)Cn2nnc(C(=O)NCc3cccs3)c2N)cc1,inactive: 5.82%
25,Fc1ccc(Nc2nc(Nc3ccc(F)cc3)nc(N3CCOCC3)n2)cc1,inactive: 4.09%

row,Structure (SMILES),"activity change, negative = cytotoxicity"
1,CCCCn1c(SCC(=O)Nc2ccc(F)cc2)nc2c(sc3ccccc32)c1=O,inactive: -2.41%
2,COc1ccc(C(=O)NCC(c2ccc3c(c2)OCO3)N2CCN(c3ccc(F)cc3)CC2)cc1 (configuration not stated),inactive: -13%
3,Cc1ccc(N(CC(C)C)S(=O)(=O)c2nnc(NC(=O)c3cccs3)s2)cc1,inactive: -26.9%
4,CCOc1ccccc1N(CC(=O)Nc1ccc(OC)c(Cl)c1)S(=O)(=O)c1ccccc1,inactive: -0.806%
5,O=C(CSc1nnc(-c2ccc(Br)cc2)n1-c1ccccc1)c1ccccc1,inactive: -4.82%
6,Cc1ccc2oc3c(c(=O)c2c1)C(c1ccc(OCC(N)=O)cc1)N(Cc1ccc2c(c1)OCO2)C3=O (configuration not stated),inactive: -2.65%
7,CNC(=O)CSc1nnc(NC(=O)Nc2ccccc2)s1,inactive: 0.172%
8,COc1ccc(NC(=O)C(=O)NCC2(c3ccccc3)CCCC2)c(OC)c1,inactive: -11.6%
9,COc1ccccc1Cc1nc2ccccc2nc1SCC(=O)N1CCC(C)CC1,inactive: -1.17%
10,CCOC(=O)c1cc(-c2ccccc2)n(CCCC(=O)Nc2cc(C)ccc2OC)c1C,inactive: -4.95%
11,Cc1cccc(C(=O)Nc2ccc(N3CCN(c4ccc(F)cc4)CC3)c(C(=O)O)c2)c1,inactive: 1.01%
12,COc1ccccc1NC(=O)c1cc(C2CC2)nc2c1c(C)nn2-c1ccc(C)cc1,inactive: 0.165%
13,CC(C)CCN(Cc1ccco1)C(=O)Cn1ncc2c([nH]c3ccccc32)c1=O,inactive: -0.693%
14,O=c1c(N2CCc3ccccc3C2)csc2ccc(Br)cc12,inactive: -1.61%
15,COc1ccc(S(=O)(=O)c2cn(Cc3ccccc3)c3cc(F)c(F)cc3c2=O)cc1,inactive: -2.5%
16,CN1C(=O)c2[nH]nc(-c3ccc(F)cc3)c2C1c1ccccn1 (configuration not stated),inactive: -3.98%
17,CCOc1ccc(C(=O)NCc2ccc3c(c2)CCN3C(=O)c2ccc(C)cc2)cc1OCC,inactive: -8.67%
18,COc1ccc(Nc2cc(C(=O)NCc3ccccc3)c3ccccc3n2)cc1OC,inactive: 5.85%
19,Cc1ccn2c(Nc3ccc4c(c3)OCCO4)c(-c3ccc(C)s3)nc2c1,inactive: -0.161%
20,Cc1ccc2nc(SCC(=O)Nc3ccc(C#N)cc3)[nH]c2c1,inactive: -4.09%
21,Cc1c(C(=O)N2CCC(C)CC2)c(S(=O)(=O)N2CCN(c3cccc(Cl)c3)CC2)c(C)n1C,inactive: 4.27%
22,COc1ccc(OC)c(NC(=O)CCc2nc(-c3ccc(C)cc3)no2)c1,inactive: -7.06%
23,COc1ccc(NC(=O)c2cc3c(=O)n(Cc4cccnc4)ccc3nc2C)cc1Cl,inactive: -22.7%
24,COc1ccccc1NC(=O)c1cc(S(=O)(=O)N2CCc3ccccc32)ccc1F,inactive: -2.46%
25,COc1cc(-c2nnc(SCC(=O)Oc3ccccc3Cl)o2)cc(OC)c1OC,inactive: 14.7%

row,Structure (SMILES),"activity change, negative = cytotoxicity"
1,COc1ccc(S(=O)(=O)c2cn(Cc3ccccc3)c3ccc(OC)cc3c2=O)cc1,inactive: -8.06%
2,CN(C)c1ccc(C(CNS(=O)(=O)c2ccc(F)cc2)N2CCc3ccccc32)cc1 (configuration not stated),inactive: -1.95%
3,C=Cc1ccc(Cn2c(=O)cc(C)c3c(C)nn(C)c32)cc1,inactive: -2.08%
4,Cc1cccc(N2CCN(c3c4c(nc5nncn35)CCC4)CC2)c1C,inactive: 8.1%
5,Cc1cc(Cl)ccc1OCc1cc(=O)n2c3c(sc2n1)CCCC3,inactive: 10.2%
6,Cc1ccc(CN2C(=O)c3ccccc3Sc3ccc(C(=O)NCCCN4CCOCC4)cc32)cc1,inactive: -27.6%
7,COc1ccccc1-c1nnc(SCC(=O)c2ccc(F)cc2)n1-c1ccccc1,inactive: -0.411%
8,CCc1ccc(CNC(=O)CN2C(=O)CCn3nc(-c4cn(C)c5ccccc45)cc32)cc1,inactive: 8.55%
9,O=C(Nc1cccc(Cl)c1)C1CCCN1S(=O)(=O)c1cccc2cccnc12 (configuration not stated),inactive: -0.0646%
10,Cn1nnnc1SCCNCc1ccc(OCc2ccc(Cl)cc2)cc1,inactive: -3.26%
11,Cc1cccc(NC(=O)CSc2nc(=O)n(Cc3cccnc3)c3c2CCC3)c1C,inactive: -5.73%
12,Cc1oc(-c2cccc(Cl)c2)nc1CN1CCC(C(=O)NCCc2ccc(Cl)cc2)CC1,inactive: 21.8%
13,CCc1ccc(C2=C(C)C(N3CCC(C(=O)NCCc4ccco4)CC3)=NS2(=O)=O)cc1,inactive: -10.1%
14,COc1cccc(OCC(=O)Nc2nnc3n2CCS3)c1,inactive: 1.6%
15,CCc1noc(-c2ccc(N3CCCCC3)c([N+](=O)[O-])c2)n1,inactive: -2.09%
16,Cc1cc(OCC(=O)NCC2(N3CCOCC3)CCCCC2)ccc1Cl,inactive: -27.4%
17,Brc1ccc2nc(-c3ccccc3)c(Nc3ccc4c(c3)OCO4)n2c1,inactive: 8.92%
18,CCc1cccc(NC(=O)C(CC(C)C)NS(=O)(=O)c2ccc3c(c2)oc(=O)n3C)c1 (configuration not stated),inactive: -27.7%
19,CCC(=O)N1CCc2cc(CNC(=O)Nc3cc(Cl)ccc3C(=O)OC)ccc21,inactive: 14.2%
20,CCSc1nn(CC(=O)Nc2ccc(C(=O)OC)cc2)c(N)c1S(=O)(=O)c1ccc(C)cc1,inactive: -0.443%
21,COc1cccc(-n2nnc(-c3nc(-c4ccccc4F)no3)c2C)c1,inactive: 1.17%
22,COC(=O)c1cc2occc2n1CC(=O)Nc1ccc(C(C)C)cc1,inactive: 7.83%
23,O=C(Nc1ccc(F)cc1)N1CCN(C(=O)c2nsc3ccccc23)CC1,inactive: -1.05%
24,COc1ccc(-c2nc3c(c(SCC(=O)N4CCCCC4)n2)Cc2c(CO)cnc(C)c2O3)cc1,inactive: -1.96%
25,CSc1cccc(NC(=O)Cn2ncn3c(cc4ccccc43)c2=O)c1,inactive: 6.09%

row,Structure (SMILES),"activity change, negative = cytotoxicity"
1,O=C(Nc1cccc(F)c1F)C1CCN(c2ncccn2)CC1,inactive: 3.18%
2,CCOc1ccccc1NC(=O)C(c1ccccc1)N1Cc2ccccc2C1=O (configuration not stated),inactive: 9.41%
3,Fc1ccccc1N1CCN(c2ncc3c(n2)CCN(Cc2cc(Br)cs2)C3)CC1,inactive: 2.74%
4,Cn1nnc2c(N3CCN(c4cccc(C(F)(F)F)c4)CC3)ncnc21,inactive: 13.6%
5,COc1ccc(OC)c(CNC(=O)CN2CC(C)Sc3ccccc32)c1 (configuration not stated),inactive: 3.72%
6,Cc1cccc(N2CCN(C(c3ccccc3)c3nnc(-c4ccccc4Cl)o3)CC2)c1C (configuration not stated),inactive: -6.78%
7,COc1ccc(-n2ncc(C(=O)N3CCOCC3)c2C2CCN(C(=O)OC(C)(C)C)CC2)cc1,inactive: 8.2%
8,COc1ccc(CNC(=O)c2cnc(N3CCOCC3)c3ccccc23)cc1,inactive: -0.0974%
9,N#Cc1ccccc1NC(=O)CSc1nnc(N)s1,inactive: 5.34%
10,Cc1ccc(Cl)cc1N1CCN(C(=O)c2cc3c(-c4ccccc4F)nn(C)c3s2)CC1,inactive: 21.9%
11,CCc1ccc2oc(-c3cc(NC(=O)c4cc([N+](=O)[O-])ccc4N4CCOCC4)ccc3Cl)nc2c1,inactive: 13.5%
12,CCCN(CCC)C(=O)Cn1c(=O)n(-c2ccc(Cl)cc2)c(=O)c2c3c(sc21)CCCC3,inactive: 17.5%
13,COc1ccc(NC(=O)CSc2nc(-c3ccco3)cc(C(F)(F)F)n2)cc1Cl,inactive: -29.1%
14,CCN(C(=O)c1cn(CC)c(=O)c2cc(OC)c(OC)cc12)c1ccc(C)c(C)c1,inactive: 29.7%
15,CC1CCc2c(sc3nnn(CC(=O)Nc4ccc(Cl)cc4)c(=O)c23)C1 (configuration not stated),inactive: -2.98%
16,Cc1ccc(N2CCN(S(=O)(=O)c3ccc4[nH]c5c(c4c3)CCCCC5)CC2)c(C)c1,inactive: -14%
17,Cn1c(=O)c2sccc2n2c(CCCC(=O)NCc3ccccc3)nnc12,inactive: -2.19%
18,Cc1cccc(NC(=O)CCc2c(C)nc3c(c(C)nn3C(C)(C)C)c2C)c1C,inactive: -24.2%
19,O=C1COc2ccc(-c3cc(-c4ccccc4)c4c(n3)-c3cc(Cl)ccc3OC4)cc2N1,inactive: 0.546%
20,COC(=O)c1sccc1S(=O)(=O)N(CC(=O)NCc1ccc(F)cc1)c1ccc(Cl)cc1,inactive: -14%
21,COc1ccc(CNC(=O)c2ccc(CNS(=O)(=O)c3ccc(F)cc3)cc2)cc1,inactive: 9.79%
22,Cc1ccc(NC(=O)Cn2nnc(C(=O)NCc3cccs3)c2N)cc1Cl,inactive: -2.18%
